In patent US7906484B2, “Complex for transferring an anionic substance into a cell” (Alnylam Pharmaceuticals, Inc., priority 2006, dated 2011):
At least one peptide structure holds a part that was inferred or is arguable (an end, a ring closure or a residue). No end group written: not given here.

What was measured:
[1] = test system: E6AP mRNA in HCT116 cells; assay: siRNA AD-8724 delivery into HCT116 cells, inhibition of E6AP mRNA expression by bDNA assay; format: cell-based, human
Description: All further experiments were carried out using HCT116 cells and inhibition of E6AP expression as readout.
HCT116-cells were obtained from the American Type Culture Collection (ATCC# CCL-247). They were cultured in McCoy's 5A medium (Biochrom AG, Berlin, Germany, Cat.# F1015) containing 10% fetal calf serum (FCS; Biochrom AG, Berlin, Germany, Cat.# S0115) and 2 mM L-Glutamin (Biochrom AG, Berlin, Germany, Cat.#: K0283) (standard growth medium). For incubation with peptide/siRNA, complexes, the medium was replaced by serum-free McCoy's 5A medium containing 2 mM L-Glutamin (serum free medium). After incubation with complexes for 4 h, McCoy's 5A medium containing 30% fetal calf serum and 2 mM L-Glutamin (triple FCS medium) was added to restore an overall 10% FCS in the medium.
The E6AP-specific siRNA denoted AD-8724 herein was used, having the following sequences: antisense strand: 5′-ucacauuccacguuaggugTsT-3′ (SEQ ID NO:51), sense strand 5′-caccuaacguggaaugugaTsT-3′; (SEQ ID NO:52; lower case letters: ribonucleotides; s: phosphorothioate backbone linkage). As a negative control, an siRNA specific for eGFP, denoted AD-5107 herein, was used, having the following sequences: antisense strand: 5′-aagucgugcugcuucauguggOMesuOMesc-3′ (SEQ ID NO:19), sense strand 5′-[…]-3′ (SEQ ID NO:18; lower case letters: ribonucleotides; subscript OMe: 2′-O-methyl-ribonucleotide; s: phosphorothioate backbone linkage). In addition to the non-specific control siRNA AD-5107, mock transfected cells treated with standard growth medium only were used as negative controls. As a positive control, AD-8724 was transfected into the cells using Lipofectamine2000™ (Invitrogen, Karlsruhe, Germany, Cat. No. 11668-019). As a further control, AD-5107 was transfected into cells using Lipofectamine2000™. All assays were performed in quadruplicates.
SiRNA/peptide complexes were prepared by mixing a solution of the siRNA in deionized water with a solution of the peptide in deionized water at the appropriate concentrations to give the desired ratio of siRNA/peptide at the desired concentration of the complex. The mixture was incubated at room temperature for 30 min and kept at 4° C. until use, and used within 24 h.
For transfections with siRNA/peptide complexes, 1.5×10^5 HCT116-cells per well in 150 μl standard growth medium were seeded into polystyrene 96 well plates and grown for 24 h at 37° C. in an atmosphere containing 5% CO2. The medium was removed by aspiration, and 90 μl serum-free medium and 10 μl of siRNA/peptide complex solution were added. Cells were incubated for 4 h at 37° C./5% CO2, 50 μl triple FCS medium were added, and the cells incubated for another 20 h under identical conditions. Subsequently, E6AP mRNA content was determined as described below.
For Lipofectamine2000™ transfections, 0.5 μl Lipofectamine2000™ were mixed with 12 μl OptiMem™ (Invitrogen, Karlsruhe, Germany, Cat. No. 11058-021) and incubated for 15 min. 1 μl of a 5 μM solution of the respective siRNA in PBS (Biochrom AG, Berlin, Germany, Cat-No: L182-05) were added to 11.5 μl OptiMeM™, mixed with the Lipofectamine2000™/OptiMem™ solution, and incubated for further 15 min. 1.5×10^5 HCT116-cells per well in 150 μl standard growth medium were grown for 24 h as described above, the growth medium removed from the cells by aspiration, and 75 μl fresh standard growth medium and the 25 μl of the siRNA/Lipofectamine2000™ mix were added to the well, to give a final siRNA concentration of 50 nM. The cells were incubated for 24 h at 37° C./5% CO2 and E6AP mRNA concentration determined.
The QuantiGene™ bDNA-kit from Panomics, Inc., Fremont, USA, was used according to manufacturer's instructions. Briefly, cells were lysed by adding 50 μl of Lysis Mixture (from QuantiGene bDNA-kit) to each well and incubation at 53° C. for 1 h. […]

[2] = Intracellular localization of Cy3-labelled siRNA complex by fluorescence microscopy; format: cell-based; conditions: Cy3-labelled siRNA complexed with ppTG20, fluorescence microscopy
[3] = test system: PC12, HCT116, C33A, H441, NMuLi, HepG2, HeLa S3 and KB-BCL2-GFP cell lines; assay: Screen of cell penetrating peptides for functional siRNA delivery, target mRNA by bDNA assay; format: cell-based; conditions: siRNA 250 nM, molar ratio peptide/siRNA 8:1, 8 cell lines
[4] = test system: eGFP-mRNA; assay: Influence of peptide/siRNA ratio on siRNA activity in HCT116 cells; format: cell-based; conditions: 250 nM siRNA
Description: The optimal ratio of (peptide):(anionic substance) for complex formation, was determined in section 3 above to lie in the range of 8:1 to 13:1 by titrating a fixed concentration of the anionic substance with increasing amounts of the peptide, and monitoring complex formation by electrophoresis of the mixture. To further validate and possibly narrow down the optimum ratio of peptide/anionic substance, an assay with a functional readout was performed. HCT116 cells were incubated with siRNA complexes as described above at concentrations such that the amount of siRNA in the incubation mixture corresponds to a 250 nM concentration of the siRNA, and the peptide/siRNA ratio was 8:1, 10:1, 12:1, or 14:1.

[5] = AD-8724, siRNA/peptide conc. 50 nM/400 nM
[6] = AD-8724, siRNA/peptide conc. 100 nM/800 nM
[7] = AD-8724, siRNA/peptide conc. 250 nM/2.0 μM
[8] = 4° C., siRNA/peptide conc. 250 nM/3.13 μM
[9] = 37° C., siRNA/peptide conc. 250 nM/3.13 μM
[10] = siRNA AD-8724 250 nM, molar peptide/siRNA ratio 12.5:1
[11] = AD-8724, siRNA/peptide conc. 25 nM/250 nM
[12] = AD-8724, siRNA/peptide conc. 250 nM/2.5 μM
[13] = AD-8724, siRNA/peptide conc. 1 μM/10 μM

HHHHHRLFRALLRLLRSLWRLLLRA [AP-30]
remaining E6AP mRNA (in % of mock) [1, 5]: 74 ± 9% | remaining E6AP mRNA (in % of mock) [1, 6]: 67 ± 6% | remaining E6AP mRNA (in % of mock) [1, 7]: 23 ± 2%

GLFRALLRLLRSLWRLLLRA [ppTG20, reference compound]
capacity for cross membrane transport of siRNA (quantity not given) [1, 8]: 77 ± 15% | capacity for cross membrane transport of siRNA (quantity not given) [1, 9]: 15 ± 11% | remaining E6AP mRNA (in % of mock) [1, 5]: 86 ± 10% | remaining E6AP mRNA (in % of mock) [1, 6]: 94 ± 12% | remaining E6AP mRNA (in % of mock) [1, 7]: 60 ± 10% | remaining E6AP mRNA (in % of mock) [1, 10]: 31 ± 9% | intracellular localization of Cy3-labelled siRNA [2]: strong signal in the perinuclear region | delivery of siRNAs to cell lines (target mRNA modulation) [3]: effective in delivering siRNAs to all 8 cell lines tested

HHHHHRLFRALLRLLRSLWRLLLRAHHHHH [AP-32]
remaining E6AP mRNA (in % of mock) [1, 5]: 74 ± 9% | remaining E6AP mRNA (in % of mock) [1, 6]: 67 ± 6% | remaining E6AP mRNA (in % of mock) [1, 7]: 23 ± 2%

RLFRALLRLLRSLWRLLLRAHHHHH [AP-27]
remaining E6AP mRNA (in % of mock) [1, 11]: 72 ± 13% | remaining E6AP mRNA (in % of mock) [1, 5]: 72 ± 9% | remaining E6AP mRNA (in % of mock) [1, 6]: 41 ± 6% | remaining E6AP mRNA (in % of mock) [1, 7]: 16 ± 3% | remaining E6AP mRNA (in % of mock) [1, 12]: 16 ± 3% | remaining E6AP mRNA (in % of mock) [1, 13]: 11 ± 2%

RLFRALLRLLRSLWRLLLRA [AP-1]
capacity for cross membrane transport of siRNA (quantity not given) ([1]; 4° C., siRNA/peptide conc. 250 nM/2.0 μM): 60 ± 6% | capacity for cross membrane transport of siRNA (quantity not given) ([1]; 37° C., siRNA/peptide conc. 250 nM/2.0 μM): 13 ± 8% | remaining E6AP mRNA (in % of mock) [1, 11]: 100 ± 9% | remaining E6AP mRNA (in % of mock) [1, 5]: 72 ± 4% | remaining E6AP mRNA (in % of mock) [1, 6]: 54 ± 17% | remaining E6AP mRNA (in % of mock) [1, 12]: 36 ± 4% | remaining E6AP mRNA (in % of mock) [1, 13]: 17 ± 4% | remaining E6AP mRNA (in % of mock) [1, 10]: 27 ± 4% | Remaining eGFP-mRNA in % of mock-transfected controls ([4]; peptide/siRNA ratio 8:1): 17 ± 5% | Remaining eGFP-mRNA in % of mock-transfected controls ([4]; peptide/siRNA ratio 10:1): 18 ± 5% | Remaining eGFP-mRNA in % of mock-transfected controls ([4]; peptide/siRNA ratio 12:1): 20 ± 6% | Remaining eGFP-mRNA in % of mock-transfected controls ([4]; peptide/siRNA ratio 14:1): 21 ± 6%

GLFRALLRLLRSLWRLLLRAHHHHH [AP-0]
capacity for cross membrane transport of siRNA (quantity not given) [1, 8]: 45 ± 9% | capacity for cross membrane transport of siRNA (quantity not given) [1, 9]: 14 ± 1% | remaining E6AP mRNA (in % of mock) [1, 7]: 32 ± 3%

RLFRALLRLLRSLWRLLLRAHHHHHHHHHH [AP-34]
remaining E6AP mRNA (in % of mock) [1, 5]: 64 ± 12% | remaining E6AP mRNA (in % of mock) [1, 6]: 52 ± 11% | remaining E6AP mRNA (in % of mock) [1, 7]: 22 ± 5%
